Several values for one entry are separate records, joined by “and”; a condition that tells them apart may be missing. Identical values can stand only once.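 96-well plates; 48 h exposure; 5 concentrations. Endpoints by linear interpolation between flanking doses. Not reached: highest tested concentration assigned. Abbreviation: GI50, concentration required for 50% inhibition of growth. TGI: concentration producing complete growth inhibition.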 Activity calls are given as the source filed them.
System: HOP-92 NSCLC
Assay: NCI-60 cell line screen, 48 h

## C[C@@H]1C[C@H](N)C[C@H](c2ccncc2NC(=O)c2ccc(F)c(-c3c(F)cccc3F)n2)C1
  GI50: inactive
  TGI: 13.9 µM and 8.36 µM
